Data on 91 molecules can be found in PubChem BioAssay AID463173 (ICCB-Longwood Screening Facility, Harvard Medical School, 2010).

Structures are written as SMILES. Hit rate of the full screen: of about 52,000 compounds, about 1,700 (3.3%) were called active. No stated cut-off is given here; in the data, active means survival mostly below about 52% (no sharp cut-off); inactive means mostly above about 56%. Some of the results follow.

The assay deals with Wild type. Put plainly: S. aureus survival, RN4220 and DeltatarO strains – OD600, teichoic acid synthesis inhibitors, primary screen (AID 463173). The note with it: S. aureus RN4220 wild type/DeltatarO growth, OD600, 18 h, active compounds read low, screened at 18.75 µg/mL (by protocol).
For `N#CC1=C(N)N(c2cccc(Cl)c2)C2=C(C(=O)CCC2)C1c1cc(CN2CCOCC2)cs1` (stereo unspecified), the survival is inactive: 87%.
Under `CC(C)N1C(=O)C(O)(c2c[nH]c3ccccc23)c2ccccc21` (stereo unspecified) stands inactive: 119%; under `CCCS(=O)(=O)N1CC(=O)N(c2cc(C)ccc2C)C(C)(C(=O)NC2CCCCCC2)C1` (stereo unspecified), inactive: 127%; under `Cc1cccc(N2C(=O)CS(=O)(=O)C23C(=O)N(Cc2c(F)cccc2Cl)c2ccccc23)c1` (stereo unspecified), inactive: 80%.
Under `CSc1cccc(NC(=O)CN2CCN(Cc3ccccc3C)S2(=O)=O)c1` stands inactive: 136%.
On to `CC1Oc2ccccc2N(CC(=O)NCc2ccccc2)C1=O` (stereo unspecified), for which the survival is inactive: 105%.
Under `Cc1cc(N)c(-n2cc3c(c2-c2ccc(Br)cc2)c(=O)n(C)c(=O)n3C)cc1C` stands inactive: 77%; under `Cc1cc(C)cc(Oc2coc3cc(OCC(=O)NC4CCCCC4)ccc3c2=O)c1`, inactive: 149%.
Take `Cc1ccc2onc(CNC(=O)NCc3cccc(Cl)c3)c2c1`: the survival is inactive: 97%.
Under `CCOc1ccc(-c2cc(C(=O)Nc3ccc(NC(C)=O)cc3)no2)cc1` stands inactive: 84%; under `O=C(O)CCCNc1cc(N2CCN(C3CCCCC3)CC2)c2noc3c2c1C(=O)c1ccccc1-3`, inactive: 85%.
The result for `CCOc1ccc(OCC)c(NC(=O)CC(C)n2nc(C)cc2C)c1` (stereo unspecified) reads inactive: 77%.
Regarding `Cc1ccc(CN(C(=O)c2ccccc2F)c2ccccn2)o1`, the survival was inactive: 83%.
Under `O=C(c1cccn2c(=O)c3cc(Cl)ccc3nc12)N1CCN(c2ccccc2F)CC1` stands inactive: 71%; under `CCOc1ccc(NC(=O)CC2C(=O)N(c3ccc(C)cc3)C(=O)N2CCC2=CCCCC2)cc1` (stereo unspecified), inactive: 78%; under `Nc1nonc1-c1nc2ccccc2n1Cc1cccc(Cl)c1`, inactive: 87%.
Turning to `CCOc1ccc(-n2nc(CO)c(C(=O)NCCCc3ccccc3)n2)cc1`, the survival was inactive: 110%.
Under `CC(=O)Nc1ccc(S(=O)(=O)N2CCC(c3nnnn3-c3ccccc3)CC2)cc1` stands inactive: 90%; under `CCOc1ccc(C(=O)Nc2cccc(C(=O)OCc3cc(=O)n4nc(C5CC5)sc4n3)c2)cc1`, inactive: 51%; under `O=C1CCC(=O)N1CNc1ccccc1`, inactive: 118%.
The result for `COc1ccc(Cl)cc1NC(=O)Cn1cc(C(=O)c2ccc(C)cc2)c(=O)c2ccc(C)nc21` reads inactive: 72%; that for `Cc1ccccc1CN1C(=O)C2(c3ccccc31)N(c1ccccc1)C(=O)CS2(=O)=O` (stereo unspecified), inactive: 146%; that for `COc1ccc(CCNC(=O)c2c(O)nc3ccccn3c2=O)cc1`, inactive: 83%.
`CCOC(=O)c1ccccc1NC(=O)CSc1nc(=O)[nH]c2c1CCC2`: the survival is inactive: 77%.
The result for `C=Cc1ccc(Cn2c(C)c(CNCCc3ccccc3C)c(C(=O)O)c2C)cc1` reads inactive: 81%.
Turning to `O=C(COc1ccc(Cl)cc1)Nc1ccc(C(=O)OCc2cc(=O)n3ccsc3n2)cc1`, the survival is inactive: 75%.
The result for `FC(F)(F)Oc1ccc2c(c1)NC(c1ccncc1)=NC(c1cccs1)=N2` reads inactive: 94%.
The result for `Cc1ccc(NC(=O)CCSc2nc(-c3ccco3)cc(C(F)(F)F)n2)cc1F` reads inactive: 61%; that for `C=CCc1cccc2cc(C(=O)Nc3ccc(F)cc3)c(=O)oc12`, inactive: 71%.
The result for `COc1ccc2oc(=O)c(C(=O)Nc3ccc(C(=O)O)cc3)cc2c1` reads inactive: 133%; that for `Cc1ccn2c(=O)c(C(=O)NCCCN3CCCCC3C)c(O)nc2c1` (stereo unspecified), inactive: 90%; that for `CCOC(=O)N1CCN(Cc2nc3cc(NC(=O)c4ccc(OC)cc4)ccc3n2C(C)C)CC1`, inactive: 89%.
Consider `COc1ccc(OCC(=O)Nc2nnc3n2CCS3)cc1`, for which the survival is inactive: 77%.
The result for `Cc1ccc(NC(=O)C(C)n2nnc3sc4c(c3c2=O)CCCC4)cc1Cl` (stereo unspecified) reads inactive: 67%; that for `Cc1c(Cl)cccc1NC(=O)c1ncoc1-c1ccco1`, inactive: 85%; that for `CC(=O)c1ccc(NC(=O)CCCSc2nc(-c3ccco3)cc(C(F)(F)F)n2)cc1`, inactive: 71%.
Under `CCc1ccc(NC(=O)CSc2nc3ccccc3c(=O)n2CCNC(C)=O)cc1` stands inactive: 82%.
Under `CN1CC2(C)CN(C(=O)c3ccccc3Cl)CC(C)(C1)C2` stands inactive: 112%; under `Oc1ccc(NCc2ccccc2OCc2ccccc2F)cc1`, inactive: 89%; under `COc1ccccc1NC(=O)CCN1CCCCC1`, inactive: 71%.
As to `CCOc1ccc(OCC)c(NC(=O)C2CCN(c3nnc(-n4cccc4)s3)CC2)c1`, the survival is inactive: 63%.
Under `CCOC(=O)c1cccc(Nc2cc(-c3ccccc3)ncn2)c1` stands inactive: 40%; under `Cc1c(Cl)cccc1NC(=O)c1ccc2snnc2c1`, inactive: 106%.
Under `CCOC(=O)c1c(C)[nH]c(CCC(=O)NCc2ccccc2Cl)c1C` stands inactive: 68%.
On to `Cc1nc(-c2ccccc2)sc1CCNC(=O)C(=O)Nc1ccc2c(c1)OCO2`, for which the survival was inactive: 60%.
With `COc1ccc(NC(=O)CCCN2C(=O)CCn3nc(-c4cn(C)c5ccccc45)cc32)cc1OC`, the survival was inactive: 72%.
`COc1cccc(OCCSc2nc(C)c(Cc3ccccc3)c(=O)[nH]2)c1`: the survival is inactive: 86%.
For the molecule `Cc1ccc(N(C)C(=O)C2CCN(S(=O)(=O)c3c(C)noc3/C=C/c3c(C)cc(C)cc3C)CC2)cc1`, the survival is inactive: 73%.
For `Cc1cccc(C(=O)NCC(=O)OCc2cc(=O)n3nc(C4CCCCC4)sc3n2)c1`, the survival was inactive: 65%.
The result for `Cc1cccc(N2CCN(S(=O)(=O)c3ccc4[nH]c5c(c4c3)CCCCC5)CC2)c1C` reads inactive: 93%; that for `CCOC(=O)c1cccc(NC(=O)CC2C(=O)N(c3ccc(OC)cc3)C(=O)N2C2CCCC2)c1` (stereo unspecified), inactive: 120%; that for `COc1cccc(NC(=O)C2=C(C)C(=O)OC23CCN(C(C)=O)CC3)c1`, inactive: 79%.
Under `c1ccc(-c2nnc(SCc3cccnc3)o2)cc1` stands inactive: 104%; under `COc1ccccc1C(=O)Nc1cc2c(cc1N1CCCC1)n(C)c(=O)c(=O)n2C`, inactive: 72%.
Regarding `CCC(=O)N1c2ccc(S(=O)(=O)NCc3ccc(F)cc3)cc2CC1C` (stereo unspecified), the survival was inactive: 81%.
The result for `COc1cc2c(cc1OC)C(COc1ccc3c(C)cc(=O)oc3c1)N(C(=O)c1cc(Cl)ccc1OC)CC2` (stereo unspecified) reads inactive: 72%; that for `CCN(CC)C(=O)Cn1nnc2sc(-c3ccccc3)cc2c1=O`, inactive: 88%; that for `COC(=O)CN1C(=O)CSc2ccc(S(=O)(=O)Nc3cccc(C)c3C)cc21`, inactive: 45%.
The result for `Cc1ccc(CN2CCSc3ccc(C(=O)NCC(C)c4ccccc4)cc32)cc1` (stereo unspecified) reads inactive: 99%.
The result for `Cc1cc2oc(C(=O)Nc3ccc(S(=O)(=O)Nc4ncccn4)cc3)cc(=O)c2cc1C` reads inactive: 90%; that for `CCOC(=O)CSc1ncnc2sc3c(c12)CCC3`, inactive: 100%.
`CCCOc1ccc(CNC(=O)c2ccc(-n3c(C)cc4c3CCC(C)C4)cc2)cc1` (stereo unspecified): the survival is inactive: 113%.
Turning to `Cc1ccc(Cn2cc(S(=O)(=O)c3cccc(Cl)c3)c(=O)c3cc(F)c(N4CCOCC4)cc32)cc1`, the survival was inactive: 87%.
The result for `CCOc1ccc(C2NC(=O)c3c(COC)cc(C)nc3N2Cc2ccccc2)cc1OC` (stereo unspecified) reads inactive: 167%; that for `CCOC(=O)C(O)C(C)(C)CN1C(=O)c2ccccc2C1=O` (stereo unspecified), inactive: 100%; that for `CCN(C(=O)CSc1nc2ccccc2[nH]1)c1ccccc1`, inactive: 81%.
The result for `Cc1ccc(NC(=O)Cn2ccn(-c3ccccc3)c(=O)c2=O)cc1` reads inactive: 84%.
Take `CC(CN1CCCCC1)OC(=O)CCc1ccccc1` (stereo unspecified): the survival was inactive: 100%.
Under `Cc1ccc(C)c(N2CCN(C(=O)c3ccc4c(c3)N(Cc3ccc(F)cc3)C(=O)c3ccccc3S4=O)CC2)c1` (stereo unspecified) stands inactive: 85%.
As for `CC1CCC(Nc2nc3c(-c4cccc(C(F)(F)F)c4)nnn3c3ccccc23)CC1` (stereo unspecified), the survival is active: -1%.
On to `COc1cc(OC)c(NC(=O)CCc2c(C)nc3cc(-c4ccccc4OC)nn3c2C)cc1Cl`, for which the survival is inactive: 87%.
The result for `CCN(CC)C(C)C#Cc1ccccc1` (stereo unspecified) reads inactive: 102%; that for `CC(C)OC(=O)c1c(NC(=O)C2c3ccccc3Oc3ccccc32)sc2c1CCCC2`, inactive: 84%; that for `COc1ccccc1-c1noc(CCC(=O)Nc2ccc(C)cc2C)n1`, inactive: 88%.
On to `Cc1ccc(NC(=O)C2CCCN(S(=O)(=O)c3cn(C(C)C)cn3)C2)c(C)c1` (stereo unspecified), for which the survival was inactive: 65%.
Under `CC1(N)CCS(=O)(=O)C1` (stereo unspecified) stands inactive: 110%; under `CC(=O)c1ccc(Nc2cc(C)nc3nc(Cc4ccc(Cl)cc4)nn23)cc1`, inactive: 88%; under `O=C(Nc1cc2c(cc1C(=O)c1ccccc1Cl)OCCO2)c1ccccc1`, inactive: 127%.
Regarding `CC(C)c1nn2c(=O)cc(COC(=O)c3ccccc3NC(=O)C3CCCCC3)nc2s1`, the survival is inactive: 72%.
For `CCc1ccc2oc(C(=O)Nc3cc(C)ccc3C)cc(=O)c2c1`, the survival is inactive: 85%.
Consider `CN(C)c1ccc(CNC(=O)c2ccccc2NC(=O)c2nsc3ccccc23)cc1`, for which the survival is inactive: 80%.
Under `CC1Cc2ccccc2N1C(=O)CSc1nnc(-c2ccccc2Cl)o1` (stereo unspecified) stands inactive: 45%.
On to `N#C/C(=C\c1c[nH]c2ccccc12)C(N)=O`, for which the survival was inactive: 100%.
The result for `NC(=O)C1CCN(C(=O)C2C3C=CC(O3)C2C(=O)O)CC1` (stereo unspecified) reads inactive: 107%; that for `C=CCOc1ccc(CNn2cn[nH]c2=S)cc1`, inactive: 84%; that for `CCCN(CCC)CC(O)Cn1cc(/C=C/C(=O)c2ccc(Br)cc2)c2ccccc21` (stereo unspecified), inactive: 85%.
For `CCn1cc(C(=O)N(C)c2ccc(C(C)C)cc2)c2cc(OC)c(OC)cc2c1=O`, the survival was inactive: 135%.
The result for `Cc1ccc(CNC(=O)CCNS(=O)(=O)c2cccc3nsnc23)cc1` reads inactive: 65%; that for `CCc1ccc(NC(=O)Cn2c(=O)n(-c3ccc(OC)cc3)c(=O)c3ccc(C(=O)NCc4ccc(C)cc4)cc32)cc1`, inactive: 132%.
The result for `Cc1c(CCC(=O)N2CCCCC2)c(=O)oc2cc3occ(C(C)(C)C)c3cc12` reads inactive: 74%; that for `Cc1ccc2nc(NC(=O)CSc3ncc(C(=O)Nc4ccc(F)cc4)c(=O)n3C)sc2c1`, inactive: 121%.
